In the supplement of paper PMC10369915:
The other results are listed elsewhere or left out. No stated cut-off is given here; in the data, active = 3.2 or more and inactive = the rest. Only a few entries rise above the background.

Legend:
Assay in all cases: enrichment score (SH2-bound / input frequency) (ratio); bacterial display of known human phosphotyrosine sites (pTyr-Var adds point mutants) read by sequencing; higher = stronger binding; tyrosines were phosphorylated by kinases first
Details in all cases: peptide library: Human pTyr
SHP2 C-SH2 domain E139D = target: SHP2 C-SH2 domain E139D
[1] = target: SHP2 C-SH2 domain wild-type
SHP2 N-SH2 domain L43F = target: SHP2 N-SH2 domain L43F
SHP2 N-SH2 domain T42A = target: SHP2 N-SH2 domain T42A
SHP2 N-SH2 domain T52S = target: SHP2 N-SH2 domain T52S
[2] = target: SHP2 N-SH2 domain wild-type

Measured: enrichment score
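Further: displayed peptides selected on beads carrying the immobilized SH2 domain, with library peptides lacking any tyrosine serving as negative controls.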

ESQEELHYATLNFPG [SIG10_HUMAN_667]
active: SHP2 C-SH2 domain E139D 3.91 | [1] 6.75 | SHP2 N-SH2 domain L43F 23.8 | SHP2 N-SH2 domain T42A 12 | SHP2 N-SH2 domain T52S 15.4 | [2] 7.86

KGVDYASYYQGLWDC [SKAP1_HUMAN_298]
inactive: SHP2 C-SH2 domain E139D 1.44 | [1] 1.21 | SHP2 N-SH2 domain L43F 0.992 | SHP2 N-SH2 domain T42A 1.18 | SHP2 N-SH2 domain T52S 1.36 | [2] 1.4

SEEGYQDYEPEAGGG [SNCA_HUMAN_136]
inactive: SHP2 C-SH2 domain E139D 0.978 | [1] 0.998 | SHP2 N-SH2 domain L43F 1.13 | SHP2 N-SH2 domain T42A 0.893 | SHP2 N-SH2 domain T52S 1.09 | [2] 1.08

KTEEAIIYSYGFATI [SPTC1_HUMAN_164]
inactive: SHP2 C-SH2 domain E139D 1.41 | [1] 1.44 | SHP2 N-SH2 domain L43F 1.41 | SHP2 N-SH2 domain T42A 1.13 | SHP2 N-SH2 domain T52S 1.61 | [2] 1.87

EDPPQEEYQEAEPEA [SNCB_HUMAN_127_YA]
inactive: SHP2 C-SH2 domain E139D 0.992 | [1] 0.895 | SHP2 N-SH2 domain L43F 0.916 | SHP2 N-SH2 domain T42A 1.02 | SHP2 N-SH2 domain T52S 1.26 | [2] 1.16

KCSVCPDYDLCSVCE [SQSTM_HUMAN_148]
inactive: SHP2 C-SH2 domain E139D 0.669 | [1] 0.658 | SHP2 N-SH2 domain L43F 0.642 | SHP2 N-SH2 domain T42A 0.649 | SHP2 N-SH2 domain T52S 0.801 | [2] 0.772

NSFNNPAYAVLEGVP [SHIP2_HUMAN_986_YA]
inactive: SHP2 C-SH2 domain E139D 0.926 | [1] 2.67 | SHP2 N-SH2 domain L43F 0.855 | SHP2 N-SH2 domain T42A 1.23 | SHP2 N-SH2 domain T52S 0.599 | [2] 0.623

IPIIVGDYGPMWVAP [SNX9_HUMAN_239_YA]
inactive: SHP2 C-SH2 domain E139D 0.68 | [1] 0.864 | SHP2 N-SH2 domain L43F 0.711 | SHP2 N-SH2 domain T42A 0.628 | SHP2 N-SH2 domain T52S 0.838 | [2] 0.612

KGVDAASYAQGLWDC [SKAP1_HUMAN_298_YA]
inactive: SHP2 C-SH2 domain E139D 0.987 | [1] 0.814 | SHP2 N-SH2 domain L43F 1.2 | SHP2 N-SH2 domain T42A 1.04 | SHP2 N-SH2 domain T52S 1.08 | [2] 0.964

EPNNHTEYASIQTSP [SHPS1_HUMAN_453]
active: SHP2 C-SH2 domain E139D 4.83 | [1] 9.9
inactive: SHP2 N-SH2 domain L43F 0.707 | SHP2 N-SH2 domain T42A 1.3 | SHP2 N-SH2 domain T52S 0.579 | [2] 0.766

DERPPEEYDQPWEWK [SHF_HUMAN_201]
inactive: SHP2 C-SH2 domain E139D 1 | [1] 0.998 | SHP2 N-SH2 domain L43F 1.14 | SHP2 N-SH2 domain T42A 0.986 | SHP2 N-SH2 domain T52S 1.13 | [2] 1.19

EMPSEEGYQDYEPEA [SNCA_HUMAN_133]
inactive: SHP2 C-SH2 domain E139D 1.17 | [1] 0.906 | SHP2 N-SH2 domain L43F 1.23 | SHP2 N-SH2 domain T42A 1.12 | SHP2 N-SH2 domain T52S 0.918 | [2] 1.32

AAEEVMCYTSLQLRP [SIT1_HUMAN_127]
inactive: SHP2 C-SH2 domain E139D 1.67 | [1] 1.97 | SHP2 N-SH2 domain L43F 1.75 | SHP2 N-SH2 domain T42A 2.86 | SHP2 N-SH2 domain T52S 1.71 | [2] 2.19

KDESRNVYYELNDVR [SKT_HUMAN_244]
inactive: SHP2 C-SH2 domain E139D 0.686 | [1] 0.834 | SHP2 N-SH2 domain L43F 1.09 | SHP2 N-SH2 domain T42A 0.732 | SHP2 N-SH2 domain T52S 0.936 | [2] 1.38

EKKSLTIYAQVQKPG [SLAF1_HUMAN_281]
inactive: SHP2 C-SH2 domain E139D 2.44 | SHP2 N-SH2 domain L43F 1.41 | SHP2 N-SH2 domain T42A 1.49 | SHP2 N-SH2 domain T52S 1.79 | [2] 1.73
active: [1] 5.11

TAPEAALYGRFTIKS [SRC_HUMAN_439]
inactive: SHP2 C-SH2 domain E139D 1.68 | [1] 0.793 | SHP2 N-SH2 domain L43F 1.01 | SHP2 N-SH2 domain T42A 1.09 | SHP2 N-SH2 domain T52S 1.18 | [2] 0.916

IPIIVGDYGPMWVYP [SNX9_HUMAN_239]
inactive: SHP2 C-SH2 domain E139D 1.07 | [1] 1.04 | SHP2 N-SH2 domain L43F 1.14 | SHP2 N-SH2 domain T42A 1.38 | SHP2 N-SH2 domain T52S 1.04 | [2] 1.13

SVEEVPLYGNLHALQ [SIT1_HUMAN_90_YA]
inactive: SHP2 C-SH2 domain E139D 0.942 | [1] 0.606 | SHP2 N-SH2 domain L43F 0.599 | SHP2 N-SH2 domain T42A 0.567 | SHP2 N-SH2 domain T52S 0.603 | [2] 0.73

DAEDGEEYDDPFAGP [SKAP2_HUMAN_75]
inactive: SHP2 C-SH2 domain E139D 1.52 | [1] 0.951 | SHP2 N-SH2 domain L43F 1.11 | SHP2 N-SH2 domain T42A 1.14 | SHP2 N-SH2 domain T52S 1.14 | [2] 1.26

EIESSPQYRLRIAME [ATX2L_HUMAN_309]
inactive: SHP2 C-SH2 domain E139D 1.17 | [1] 1.05 | SHP2 N-SH2 domain L43F 1.05 | SHP2 N-SH2 domain T42A 1.04 | SHP2 N-SH2 domain T52S 1.13 | [2] 1.43

ASEDTLTYADLDMVH [SHPS1_HUMAN_470]
inactive: SHP2 C-SH2 domain E139D 0.808 | [1] 0.589 | SHP2 N-SH2 domain T42A 2.67 | SHP2 N-SH2 domain T52S 2.69 | [2] 1.58
active: SHP2 N-SH2 domain L43F 3.58

MARNEGFYADPALAH [SKT_HUMAN_393_YA]
inactive: SHP2 C-SH2 domain E139D 0.629 | [1] 0.572 | SHP2 N-SH2 domain L43F 0.505 | SHP2 N-SH2 domain T42A 0.604 | SHP2 N-SH2 domain T52S 0.556 | [2] 0.69

ETNSITVYASVTLPE [SLAF1_HUMAN_327]
inactive: SHP2 C-SH2 domain E139D 1.61 | [1] 2.54 | SHP2 N-SH2 domain L43F 1.3 | SHP2 N-SH2 domain T42A 1.6 | SHP2 N-SH2 domain T52S 1.43 | [2] 1.68

VVSEEPIYIVTEAMS [SRC_HUMAN_338_YA]
inactive: SHP2 C-SH2 domain E139D 0.692 | [1] 0.664 | SHP2 N-SH2 domain L43F 0.765 | SHP2 N-SH2 domain T42A 1.02 | SHP2 N-SH2 domain T52S 0.644 | [2] 0.632

SNDSEPKYAPIAVLL [AVIL_HUMAN_758_YA]
inactive: SHP2 C-SH2 domain E139D 1.37 | [1] 1.08 | SHP2 N-SH2 domain L43F 1.28 | SHP2 N-SH2 domain T42A 1.11 | SHP2 N-SH2 domain T52S 1.3 | [2] 1.25

TRRKGVDYASAAQGL [SKAP1_HUMAN_295_YA]
inactive: SHP2 C-SH2 domain E139D 0.702 | [1] 0.671 | SHP2 N-SH2 domain L43F 0.806 | SHP2 N-SH2 domain T42A 0.776 | SHP2 N-SH2 domain T52S 0.799 | [2] 0.675

ENDTITIYSTINHSK [SLAF6_HUMAN_309]
inactive: SHP2 N-SH2 domain L43F 1.05 | SHP2 N-SH2 domain T42A 1.33 | SHP2 N-SH2 domain T52S 1.11 | [2] 1.22
active: SHP2 C-SH2 domain E139D 6.35 | [1] 10.9

WMTGYEDYRHAPVRG [SPRE2_HUMAN_231]
inactive: SHP2 C-SH2 domain E139D 1.12 | [1] 1.18 | SHP2 N-SH2 domain L43F 1.03 | SHP2 N-SH2 domain T42A 1.06 | SHP2 N-SH2 domain T52S 1.4 | [2] 1.62

SACTMGAYHPLLYEK [SIAT1_HUMAN_369]
inactive: SHP2 C-SH2 domain E139D 1.31 | [1] 1.16 | SHP2 N-SH2 domain L43F 1.01 | SHP2 N-SH2 domain T42A 0.97 | SHP2 N-SH2 domain T52S 1.25 | [2] 1.19

SETPGAIYSSNFHAV [SRBS1_HUMAN_654_YA]
inactive: SHP2 C-SH2 domain E139D 0.746 | [1] 0.587 | SHP2 N-SH2 domain L43F 0.642 | SHP2 N-SH2 domain T42A 0.679 | SHP2 N-SH2 domain T52S 0.551 | [2] 0.579

APEMVNLYSGKIITT [AAK1_HUMAN_234]
inactive: SHP2 C-SH2 domain E139D 1.04 | [1] 0.748 | SHP2 N-SH2 domain L43F 0.51 | SHP2 N-SH2 domain T42A 0.736 | SHP2 N-SH2 domain T52S 0.694 | [2] 0.611

SNDSEPKYYPIAVLL [AVIL_HUMAN_758]
inactive: SHP2 C-SH2 domain E139D 1.31 | [1] 1.03 | SHP2 N-SH2 domain L43F 1.09 | SHP2 N-SH2 domain T42A 1.12 | SHP2 N-SH2 domain T52S 1.42 | [2] 1.4

KTLSEVDYAPAGPAR [SHIP2_HUMAN_1135]
inactive: SHP2 C-SH2 domain E139D 1.24 | [1] 0.634 | SHP2 N-SH2 domain L43F 1.05 | SHP2 N-SH2 domain T42A 0.492 | SHP2 N-SH2 domain T52S 0.635 | [2] 0.529

TRRKGVDYASYYQGL [SKAP1_HUMAN_295]
inactive: SHP2 C-SH2 domain E139D 1 | [1] 0.868 | SHP2 N-SH2 domain L43F 0.867 | SHP2 N-SH2 domain T42A 0.832 | SHP2 N-SH2 domain T52S 1.2 | [2] 1.86

KPPGTSSYEIVIGGG [SLAF5_HUMAN_341]
inactive: SHP2 C-SH2 domain E139D 0.881 | [1] 0.865 | SHP2 N-SH2 domain L43F 0.923 | SHP2 N-SH2 domain T42A 0.727 | SHP2 N-SH2 domain T52S 0.882 | [2] 0.851

AASKKTIYTAIMASR [SLAF5_HUMAN_279_YA]
active: SHP2 C-SH2 domain E139D 4.43 | [1] 7.9 | SHP2 N-SH2 domain T42A 3.37
inactive: SHP2 N-SH2 domain L43F 1.51 | SHP2 N-SH2 domain T52S 1.24 | [2] 1.17

TQILAASYELHKFAH [SPTB2_HUMAN_1805_YA]
inactive: SHP2 C-SH2 domain E139D 1.02 | [1] 0.936 | SHP2 N-SH2 domain L43F 0.883 | SHP2 N-SH2 domain T42A 0.863 | SHP2 N-SH2 domain T52S 0.925 | [2] 1.02
